According to the supplement of paper PMC6135742:
Structures can show the parent of a compound that is named as a salt. ± gives the standard deviation of the averaged measurements. Whole data set: some 2,600 compounds, median “MBP+ mature oligodendrocyte number relative to DMSO vehicle control” near -0.34, cut for the highest 2% near 13. This is one part of the list.

System: jimpy (Plp1 jimpy) mouse iPSC-derived oligodendrocyte progenitor cells
Experiment: MBP+ mature oligodendrocyte number relative to DMSO vehicle control (SDs above negative control mean); higher = more surviving jimpy oligodendrocytes (rescue)
Conditions: 10 µM; 3 days
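Further: 10 µM single dose with 3-day oligodendrocyte differentiation.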

| Compound | MBP+ mature oligodendrocyte number |
| --- | --- |
| CC(C)C[C@H](NC(=O)[C@@H](NC(=O)c1cccc(-c2ccccc2)n1)[C@@H](C)O)B(O)O | < -6.7 |
| CN1CCC(=C2c3ccccc3CCc3cccnc32)CC1 [Azatadine dimaleate] | -2.75 |
| Nc1nc2ccc(OC(F)(F)F)cc2s1 [Riluzole] | 0.493 ± 0.72 |
| COc1ccc2c(c1)c(CC(=O)O)c(C)n2C(=O)c1ccc(Cl)cc1 [Indomethacin] | 0.3 ± 0.45 |
| CNC(=O)c1cc(Oc2ccc(NC(=O)Nc3ccc(Cl)c(C(F)(F)F)c3)c(F)c2)ccn1 [Regorafenib (BAY 73-4506)] | 1.51 |
| CC(C)C[C@H](NC(=O)[C@H](O)[C@H](N)Cc1ccccc1)C(=O)O [Epibestatin hydrochloride] | -1.54 |
| CN(C)CC(=O)Nc1ccc2[nH]c(=O)c3ccccc3c2c1 | -1.25 |
| COc1ccc2c(c1OC)C(=O)O[C@@H]2[C@H]1c2c(cc3c(c2OC)OCO3)CCN1C [Noscapine hydrchloride] | -0.0882 |
| O=C(O)c1cc(/N=N/c2ccc(O)c(C(=O)O)c2)ccc1O [Olsalazine Sodium] | -0.354 |
| CCCCCCCCCCCCCCCC(=O)OC(CC(=O)O)C[N+](C)(C)C (racemic) [Palmitoyl-DL-Carnitine chloride] | 0.304 |
| O=C(Nc1ccccc1-c1cn2c(CN3CCNCC3)csc2n1)c1cnc2ccccc2n1 | < -6.7 |
| CN(C)CCCN1c2ccccc2Sc2ccccc21 [Promazine hydrochloride] | -3.28 |
| Cc1cc(C(C)(C)C)c(O)c(C)c1CC1=NCCN1 [Oxymetazoline hydrochloride] | -1.54 |
| Cc1cc(C(C)(C)C)c(O)c(C)c1CC1=NCCN1 [Oxymetazoline HCl] | -0.332 |
| O=C[C@H](O)[C@@H](O)[C@H](O)CO [Xylose] | -1 |
| CC(=O)O[C@]1(C(C)=O)CC[C@H]2[C@@H]3C[C@H](C)C4=CC(=O)C=C[C@]4(C)[C@@]3(F)[C@@H](O)C[C@@]21C [Fluorometholone Acetate] | 10.3 |
| COc1ccc([C@@H]2CC(=O)c3c(O)cc(O[C@@H]4O[C@H](CO[C@@H]5O[C@@H](C)[C@H](O)[C@@H](O)[C@H]5O)[C@@H](O)[C@H](O)[C@H]4O)cc3O2)cc1O [Hesperidin] | 1.23 |
| O=c1cc(N2CCOCC2)oc2c(-c3cccc4c3sc3ccccc34)cccc12 | -5.93 |
| CC(C)(C(=O)O)c1ccc(C(O)CCCN2CCC(C(O)(c3ccccc3)c3ccccc3)CC2)cc1 (stereo not given) [Fexofenadine HCl] | 1.53 |
| CC(C)(C(=O)O)c1ccc(C(O)CCCN2CCC(C(O)(c3ccccc3)c3ccccc3)CC2)cc1 (stereo not given) [Fexofenadine hydrochloride] | 0.659 |
